Hit rate of the full screen: of about 44,000 compounds, about 340 (0.77%) were called active. Roughly 5% stayed inconclusive and do not appear here. Calls come from the whole dose curve; as a rule, active = well fitted inhibition curve with a large enough effect; inconclusive = small, poorly fitted or top-dose-only effect; inactive = flat fitted curve, though single readings scatter. Some of the results follow.
Experiment: Acumen qHTS Assay for Inhibitors of the mTORC1 Signaling Pathway in MEF (Tsc2-/-, p53-/-) Cells: Sytravon; note: nearly all actives have a fitted effect of over 50% in size
Conditions: phospho-rpS6 immunofluorescence/PI, 24 h; series mostly up to 38.3 µM; activity change, negative = inhibition: at the top concentration
Procedure, shortened: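 Readout is phospho-S6 Alexa 488 signal normalized to PI per well, reported as % active cells with thresholds set from rapamycin (7.5 nM) and DMSO controls. Cells: Tsc2-/-, p53-/- MEFs, 24 hrs compound at 37 C; PI cell number serves as viability.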

Activity change, negative = inhibition, inactive:
Cc1ccc(NC(=O)CSc2ncc3c(n2)-c2ccccc2N(C)S3(=O)=O)c(Cl)c1 1.62%, Cc1cc(=O)n2nc(N3CCC(C(=O)NCc4ccccc4F)CC3)sc2n1 -3.18%, CN1CCN(CCNC(=O)c2cnn(-c3cccc(Cl)c3)c2C2CCN(C(=O)OC(C)(C)C)CC2)CC1 3.75%, CCc1ccc(CNC(=O)Cn2nc(C)c3c(C)n(-c4ccc(C)cc4)nc3c2=O)cc1 2.07%, CCC(CC)C(=O)Nc1cccc(-c2nc3ncccn3c2C)c1 -23.2%, Cc1c(Cl)cccc1NC(=O)c1cc(-c2cccs2)on1 -4.72%, CCOC(=O)c1c(C)[nH]c(C)c1S(=O)(=O)N(C)CC(=O)Nc1cccc(Cl)c1C 5.75%, Cc1ccc(NCc2cccn2-c2nnc(N3CCC(C(=O)NCc4ccccc4C)CC3)s2)cc1 -1.15%, COc1ccc(CN2CCCN(CC(=O)Nc3ccc(Br)cc3F)S2(=O)=O)cc1 0%, Cc1ccc(-n2ncc(C(=O)NCc3ccc4c(c3)OCO4)c2C2CCN(C(=O)OC(C)(C)C)CC2)cc1C -4.5%, Cc1c(C(=O)N2CCC(C)CC2)c(S(=O)(=O)Nc2cccc(C#N)c2)c(C)n1C 0%, CCOc1ccc(NC(=O)CC2Nc3cccc4cccc(c34)NC2=O)cc1 (centres undefined) -0.955%, CC1=C(c2ccc(C)c(C)c2)S(=O)(=O)N=C1N1CCN(c2cccc(C)c2)C(C)C1 (centres undefined) 1.46%, COc1ccc(C(=O)N2CCCCC2CCN2CCOCC2)cc1 (centres undefined) 5.42%, CC(C)Sc1ncc(Cl)c(C(=O)Nc2nc3ccc(S(C)(=O)=O)cc3s2)n1 3.46%, Cc1cc(-c2ccc(S(=O)(=O)Nc3cccc(C(F)(F)F)c3)s2)on1 -15.7%, CCOC(=O)c1ccc(NC(=O)C2=C(C)C(=O)OC23CCCCCC3)cc1 -19.8%, CN(C(=O)CSc1nc2ccc(NC(=O)COc3ccc(F)cc3)cc2s1)c1ccccc1 -19.5%, Cc1cc(C)c(NC(=O)C2CCN(C(=O)N3CC(C)Oc4ccc(Cl)cc43)CC2)c(C)c1 (centres undefined) 0.0257%, COc1ccc(NC(=O)c2cc3c(=O)n(Cc4cccs4)ccc3nc2C)c(OC)c1 -7.52%, COc1ccc(NC(=O)Cn2c(=O)n(Cc3nc(C)no3)c(=O)c3cc4c(cc32)OCO4)cc1 -6.09%, Cc1ccc(-c2nc3cc(Cl)ccc3o2)cc1NC(=O)c1cc2ccccc2o1 5.97%, Cc1c(C(=O)N(C)C)sc2c1c(=O)n(-c1ccccc1C(F)(F)F)c(=O)n2Cc1ccccc1C#N -4.77%, CC(C)Cc1nn2c(=O)cc(COC(=O)c3cccc(NC(=O)c4cccs4)c3)nc2s1 0%, COc1ccc(-c2nsc(NC(=O)COc3ccccc3OC)n2)cc1 1.45%, Cc1ccccc1Cn1c(=O)n(CC2CCC(C(=O)N3CCC(C)CC3)CC2)c(=O)c2sccc21 (centres undefined) -22.9%, COc1ccccc1CNC(=O)CCCn1c(=O)c2ccccc2n(CC(=O)Nc2ccc(C)cc2Cl)c1=O -24.9%, Cn1c(=O)n(Cc2ccccc2Cl)c(=O)c2c1nc1n2CCN1c1ccccc1 6.89%, COc1cccc(CNC(=O)CSc2cc(C)[nH]c(=O)n2)c1 -4.81%, Cc1c(Cl)cccc1NC(=O)CSc1nc(=O)n(Cc2ccncc2)c2c1CCC2 -3.48%, Cc1ccc(C(=O)COC(=O)CCCC(=O)Nc2cc(C(F)(F)F)ccc2Cl)cc1C 7.42%, COc1ccc(C(=O)NCc2ccc3c(c2)CCN3C(C)=O)cc1OC 0.837%, Cc1oc(-c2ccc(C(=O)NCCCOC(C)C)cc2)nc1CS(=O)(=O)c1ccccc1 -6.03%, CCn1ccc2cc(S(=O)(=O)N3CCCN(C(=O)Nc4ccc(C)cc4Cl)CC3)ccc21 2.64%, Cc1cc(Nc2ccccc2F)n2nc(Cc3ccc(Cl)cc3)nc2n1 1.22%, Cc1cccc(NC(=O)CSc2ncc3c(n2)-c2cc(Cl)ccc2N(C)S3(=O)=O)c1C -19.2%, CC(=O)N1CCN(C(=O)C(=O)Nc2c3c(nn2-c2ccc(Cl)cc2)CSC3)CC1 -5.93%, CCc1ccc(OCC(=O)Nc2cc3oc4ccccc4c3cc2OC)c(Br)c1 1.04%, CCOc1ccc2c(c1)c(=O)c(S(=O)(=O)c1ccc(CC)cc1)cn2CC -2.88%, COc1ccc(-c2nnc(SCC(=O)N3CCCCC3)o2)cc1 -12.5%, CCOc1ccccc1-c1noc(CSc2nnc(-c3ccncc3)n2-c2ccc(F)cc2)n1 2.19%, CC1CCN(C(=O)CN2c3ccc(Br)cc3-c3ccccc3S2(=O)=O)CC1 -8.44%, O=C(COc1ccccc1)Nc1c(C(=O)N2CCN(c3ccc(F)cc3)CC2)oc2ccccc12 7.32%, O=C1CC(c2ccccc2)Cc2[nH]c(=O)c(C(=O)Nc3ccc(F)cc3)cc21 (centres undefined) 0%, CCOc1ccc(CCNC(=O)CCCc2nnc3n(CCCOC)c(=O)c4sccc4n23)cc1 3.18%, Cc1c(C(=O)N2CCCCCC2)c(S(=O)(=O)Nc2ccc(OC(F)(F)F)cc2)c(C)n1C 0%, CCOC(=O)c1ccc(NC(=O)CSc2cc(-c3ccccc3)nc(C)n2)cc1 -1.95%, CC(C)CC(=O)Nc1nnc(S(=O)(=O)N(C)c2ccc(Cl)cc2)s1 3.86%, Cc1ccc(C)c(N(C)C(=O)CCNC(=O)Cn2cnc3ccccc3c2=O)c1 -0.178%, Cc1c(-c2ccc(Cl)cc2)c(=O)oc2c(CN3CCN(C)CC3)c(O)ccc12 -20.5%, O=C(CNC(=O)c1ccccc1Cl)OCc1cc(=O)n2nc(C3CC3)sc2n1 -0.249%, CC1CCc2c(sc3nc(-c4cc5ccccc5oc4=O)nc(Cl)c23)C1 (centres undefined) -4.63%, CCOC(=O)C1CCCN(C(=O)c2cc3c(Cl)nc4ccccc4c3s2)C1 (centres undefined) -12.4%, COc1cccc2sc(N(Cc3cccnc3)C(=O)C3CCCCC3)nc12 -2.45%, CC(C)c1nn2c(=O)cc(COC(=O)c3cccc(NC(=O)c4ccccc4F)c3)nc2s1 0%, CCOc1ccc(C2c3c(-c4ccccc4O)n[nH]c3C(=O)N2Cc2cccnc2)cc1OC (centres undefined) -3.27%, CCC1Oc2ccc(C)cc2N(CC(=O)NCc2ccc(F)cc2)C1=O (centres undefined) 11.5%, O=C(Nc1cccc(Cl)c1)C(Cc1ccccc1)n1cccc1 (centres undefined) -6.53%, CCOC(=O)c1ccc2c(c1)sc1nc(-c3ccc(OCC)cc3)cn12 0.557%, COc1cccc(CNC(=O)Cn2c(=O)cc(C(F)(F)F)c3c(C)nn(C)c32)c1OC -7.82%, O=C(NCCS(=O)(=O)N1CCN(c2ccccc2F)CC1)c1ccccc1C(F)(F)F -0.208%, Fc1ccc(F)c(Nc2c3c(nc4ccc(Cl)cc24)CCC3)c1 2.2%, CCN(CC)CCCNC(=O)c1c2c(nc3ccccc13)C(=O)N(C1CCCCC1)C2 -0.48%, COc1ccc(N2C(=O)C(CC(=O)Nc3ccc(Cl)cc3)N(Cc3ccc4c(c3)OCO4)C2=O)cc1 (centres undefined) 1.89%, COc1ccc(NC(=O)CCc2nc3cccnc3n2-c2ccccc2)c(OC)c1 -0.393%, CCOC(=O)c1c(NC(=O)c2cc(=O)c3cc(Cl)ccc3o2)sc(C)c1C -1.51%, Cc1cccc(-c2nc(SCc3cc(=O)c4cccc(F)c4[nH]3)n[nH]2)c1 -14.1%, Cc1ccc(C)c(N2CCN(C(=O)CN3CCSc4ccccc43)CC2)c1 -1.57%, COc1cc(C(=O)Nc2ccccc2OCc2cc(=O)n3c(C)csc3n2)cc(OC)c1OC 0.989%, CCOc1ccc(CCNC(=O)CSc2nnnn2-c2ccccc2Cl)cc1OCC -12.5%, COCCn1c(=N)c(C(=O)NCC2CCCO2)cc2c(=O)n3ccccc3nc21 (centres undefined) -1.15%, CCN1CCN(C(c2ccc(C)cc2)c2sc3nc(-c4ccco4)nn3c2O)CC1 (centres undefined) -1.83%, COc1ccc(Nc2nc3cc(Cl)c(Cl)cc3n3cnnc23)cc1Cl -12.6%, Cc1ccccc1OCCCn1c(-c2ccc(Cl)cc2)nc2ccccc2c1=O 5.47%, O=C(Nc1nnc(S(=O)(=O)N2CCCC2)s1)c1ccccc1Br -0.65%, Cc1ccccc1Cn1nnc2c(=O)[nH]c(C3CCCN(C(=O)c4ccc(F)cc4)C3)nc21 (centres undefined) -6.61%, COc1ccc(NC(=O)CC2C(=O)N(c3ccc(C)cc3)C(=O)N2Cc2ccc3c(c2)OCO3)cc1 (centres undefined) -12.9%, CCOC(=O)c1ccc(NC(=O)CSc2nnc(CNC(=O)c3ccc(OC)cc3)n2CC)cc1 -1.3%, CC1CCN(CCCNC(=O)c2cn(C)c3ccc(S(=O)(=O)N(C)C4CCCCC4)cc3c2=O)CC1 2.79%, COc1cc2c(cc1OC)C(COc1ccc(C(C)C)cc1)N(C(=O)c1ccc(S(=O)(=O)N3CCCC3)cc1)CC2 (centres undefined) 5.17%, COc1ccc(N2CCN(S(=O)(=O)c3ccc4c(c3)CCCN4C(C)=O)CC2)cc1 -1.8%, CCC(C)n1c(SCc2c(F)cccc2Cl)nc2ccsc2c1=O (centres undefined) -12.3%, COc1cc(N2C(=O)CSC23C(=O)N(Cc2ccc(C)cc2)c2ccccc23)cc(OC)c1OC (centres undefined) 0.831%, Cc1ccc2c(c1)N(C(=O)CCC(=O)NCc1cccs1)CCO2 0.0685%, Cc1ccc(C)c(CN2C(=O)c3ccccc3S(=O)c3ccc(C(=O)N4CCN(c5ccccc5F)CC4)cc32)c1 (centres undefined) -8.04%, CCc1ccc(-c2nc3cc(NC(=O)c4cc5ccccc5cc4OC)ccc3o2)cc1 5.39%, COC(=O)c1cc(NC(=O)[C@H](CCS(C)(=O)=O)N2Cc3ccccc3C2=O)cc(C(=O)OC)c1 0.171%, COc1ccc(Br)c(C(=O)Nc2cc3c(cc2N2CCCCC2)n(C)c(=O)c(=O)n3C)c1 -3.26%, CCc1cc(C(=O)NC(C)c2ccccc2)no1 (centres undefined) 6.82%, COc1cc(C2CC(=O)N(Cc3ccc(F)cc3)c3ccccc3S2)cc(OC)c1OC (centres undefined) 1.26%, COc1cc2c(cc1OC)C(COc1ccc(F)cc1)N(C(=O)c1ccc(S(=O)(=O)N3CCCC3)cc1)CC2 (centres undefined) 0.606%, COC(=O)c1ccccc1NC(=O)c1ccc2nc(Cc3ccccc3)oc2c1 -6.71%, O=C(CCCn1c(=O)c2ccccc2n(Cc2ccc(F)cc2Cl)c1=O)NCCc1ccc(Cl)cc1 -7.03%, COC(=O)c1ccccc1NC(=O)c1nc(S(=O)(=O)Cc2cccc(C)c2)ncc1Cl -26.5%

From PubChem BioAssay AID493208 (National Center for Advancing Translational Sciences (NCATS), 2011)
